Source: the supplement of paper PMC8728848
Some of the results follow.

Columns and labels:
Assay in all cases: glycan array binding signal (z-score within array); higher = stronger binding
Details in all cases: glycan notation: IUPAC condensed, linker removed
[1] = target: Fuc(a1-2)Gal(b1-4)GlcNAc(b1-3)Gal(b1-4)GlcNAc(b1-3)Gal(b1-4)GlcNAc
Summary of the method: (§1)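 Glycan array data were curated from 3228 arrays in the Consortium for Functional Glycomics database and kept only where the protein sequence was available. Glycan names were converted to IUPAC-condensed notation, and columns mapping to the same glycan were averaged. The binding signal is a within-array Z-score, averaged across arrays of the same protein sequence at different concentrations or buffers and across linkers. Negative Z-scores can be read as non-binding.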

[2] = target: Fuc(a1-2)Gal(b1-4)GlcNAc(b1-3)GalNAc
Summary of the method: as §1

[3] = target: Fuc(a1-2)Gal(b1-4)GlcNAc(b1-3)[Fuc(a1-2)Gal(b1-4)GlcNAc(b1-6)]GalNAc
Summary of the method: as §1

[4] = target: Fuc(a1-2)Gal(b1-4)GlcNAc(b1-3)[Fuc(a1-3)[Gal(b1-4)]GlcNAc(b1-6)]Gal(b1-4)Glc
Summary of the method: as §1

[5] = target: Fuc(a1-2)Gal(b1-4)GlcNAc(b1-6)GalNAc
Summary of the method: as §1

[6] = target: Fuc(a1-2)Gal(b1-4)GlcNAc6S
Summary of the method: as §1

[7] = target: Fuc(a1-2)Gal(b1-4)[Fuc(a1-3)]GlcNAc
Summary of the method: as §1

[8] = target: Fuc(a1-2)Gal(b1-4)[Fuc(a1-3)]GlcNAc(b1-2)Man(a1-3)[Fuc(a1-2)Gal(b1-4)[Fuc(a1-3)]GlcNAc(b1-2)Man(a1-6)]Man(b1-4)GlcNAc(b1-4)[Fuc(a1-6)]GlcNAc
Summary of the method: as §1

[9] = target: Fuc(a1-2)Gal(b1-4)[Fuc(a1-3)]GlcNAc(b1-2)[Fuc(a1-2)Gal(b1-4)[Fuc(a1-3)]GlcNAc(b1-4)]Man(a1-3)[Fuc(a1-2)Gal(b1-4)[Fuc(a1-3)]GlcNAc(b1-2)Man(a1-6)]Man(b1-4)GlcNAc(b1-4)GlcNAc
Summary of the method: as §1

[10] = target: Fuc(a1-2)Gal(b1-4)[Fuc(a1-3)]GlcNAc(b1-3)Gal(b1-4)[Fuc(a1-3)]GlcNAc
Summary of the method: as §1

[11] = target: Fuc(a1-2)Gal(b1-4)[Fuc(a1-3)]GlcNAc(b1-3)Gal(b1-4)[Fuc(a1-3)]GlcNAc(b1-3)Gal(b1-4)[Fuc(a1-3)]GlcNAc
Summary of the method: as §1

[12] = target: Fuc(a1-2)Gal(b1-4)[Fuc(a1-3)]GlcNAc(b1-3)GalNAc
Summary of the method: as §1

[13] = target: Fuc(a1-2)Gal(b1-4)[Fuc(a1-3)]GlcNAc(b1-3)[Neu5Ac(a2-6)Gal(b1-4)GlcNAc(b1-6)]Gal(b1-4)Glc
Summary of the method: as §1

[14] = target: Fuc(a1-2)Gal3S(b1-4)GlcNAc
Summary of the method: as §1

[15] = target: Fuc(a1-2)Gal6S(b1-3)GlcNAc
Summary of the method: as §1

[16] = target: Fuc(a1-2)Gal6S(b1-3)GlcNAc6S
Summary of the method: as §1

Fuc(a1-2)Gal6S(b1-4)Glc = target: Fuc(a1-2)Gal6S(b1-4)Glc
Summary of the method: as §1

[17] = target: Fuc(a1-2)Gal6S(b1-4)Glc6S
Summary of the method: as §1

Fuc(a1-2)[Gal(a1-3)]Gal = target: Fuc(a1-2)[Gal(a1-3)]Gal
Summary of the method: as §1

[18] = target: Fuc(a1-2)[Gal(a1-3)]Gal(b1-3)GalNAc
Summary of the method: as §1

[19] = target: Fuc(a1-2)[Gal(a1-3)]Gal(b1-3)GalNAc(b1-3)Gal(a1-4)Gal(b1-4)Glc
Summary of the method: as §1

[20] = target: Fuc(a1-2)[Gal(a1-3)]Gal(b1-3)GlcNAc
Summary of the method: as §1

[21] = target: Fuc(a1-2)[Gal(a1-3)]Gal(b1-3)GlcNAc(b1-2)Man(a1-3)[Fuc(a1-2)[Gal(a1-3)]Gal(b1-3)GlcNAc(b1-2)Man(a1-6)]Man(b1-4)GlcNAc(b1-4)GlcNAc
Summary of the method: as §1

[22] = target: Fuc(a1-2)[Gal(a1-3)]Gal(b1-3)GlcNAc(b1-2)Man(a1-3)[Fuc(a1-2)[Gal(a1-3)]Gal(b1-3)GlcNAc(b1-2)Man(a1-6)]Man(b1-4)GlcNAc(b1-4)[Fuc(a1-6)]GlcNAc
Summary of the method: as §1

[23] = target: Fuc(a1-2)[Gal(a1-3)]Gal(b1-3)GlcNAc(b1-3)GalNAc
Summary of the method: as §1

[24] = target: Fuc(a1-2)[Gal(a1-3)]Gal(b1-3)GlcNAc(b1-6)GalNAc
Summary of the method: as §1

[25] = target: Fuc(a1-2)[Gal(a1-3)]Gal(b1-4)Glc
Summary of the method: as §1

[26] = target: Fuc(a1-2)[Gal(a1-3)]Gal(b1-4)GlcNAc
Summary of the method: as §1

[27] = target: Fuc(a1-2)[Gal(a1-3)]Gal(b1-4)GlcNAc(b1-2)Man
Summary of the method: as §1

[28] = target: Fuc(a1-2)[Gal(a1-3)]Gal(b1-4)GlcNAc(b1-2)Man(a1-3)[Fuc(a1-2)[Gal(a1-3)]Gal(b1-4)GlcNAc(b1-2)Man(a1-6)]Man(b1-4)GlcNAc(b1-4)GlcNAc
Summary of the method: as §1

B1: diCBM40 CPF071 (Clostridium perfringens) (protein)
chain: MAHHHHHHVGTGSNDDDDKSPDPMLSSLGEYKDINLESSNASNITYDLEKYKNLDEGTIVVRFNSKDSKIQSLLGISNSKTKNGYFNFYVTNSRVGFELRNQKNEGNTQNGTENLVHMYKDVALNDGDNTVALKIEKNKGYKLFLNGKMIKEVKDTNTKFLNNIENLDSAFIGKTNRYGQSNEYNFKGNIGFMNIYNEPLGDDYLLSKTGETKALNGSELGSGSGLSSLGEYKDINLESSNASNITYDLEKYKNLDEGTIVVRFNSKDSKIQSLLGISNSKTKNGYFNFYVTNSRVGFELRNQKNEGNTQNGTENLVHMYKDVALNDGDNTVALKIEKNKGYKLFLNGKMIKEVKDTNTKFLNNIENLDSAFIGKTNRYGQSNEYNFKGNIGFMNIYNEPLGDDYLLSKTGETK
[1]
  glycan array binding signal (z-score): -0.289
[2]
  glycan array binding signal (z-score): -0.324
[3]
  glycan array binding signal (z-score): -0.266
[4]
  glycan array binding signal (z-score): -0.238
[5]
  glycan array binding signal (z-score): -0.304
[6]
  glycan array binding signal (z-score): -0.335
[7]
  glycan array binding signal (z-score): -0.251
[8]
  glycan array binding signal (z-score): -0.327
[9]
  glycan array binding signal (z-score): -0.316
[10]
  glycan array binding signal (z-score): -0.173
[11]
  glycan array binding signal (z-score): -0.064
[12]
  glycan array binding signal (z-score): 0.079
[13]
  glycan array binding signal (z-score): -0.297
[14]
  glycan array binding signal (z-score): -0.323
[15]
  glycan array binding signal (z-score): -0.33
[16]
  glycan array binding signal (z-score): -0.259
Fuc(a1-2)Gal6S(b1-4)Glc
  glycan array binding signal (z-score): -0.325
[17]
  glycan array binding signal (z-score): -0.296
Fuc(a1-2)[Gal(a1-3)]Gal
  glycan array binding signal (z-score): -0.249
[18]
  glycan array binding signal (z-score): -0.299
[19]
  glycan array binding signal (z-score): -0.333
[20]
  glycan array binding signal (z-score): -0.329
[21]
  glycan array binding signal (z-score): -0.342
[22]
  glycan array binding signal (z-score): -0.216
[23]
  glycan array binding signal (z-score): -0.354
[24]
  glycan array binding signal (z-score): -0.307
[25]
  glycan array binding signal (z-score): -0.343
[26]
  glycan array binding signal (z-score): -0.341
[27]
  glycan array binding signal (z-score): -0.348
[28]
  glycan array binding signal (z-score): -0.035
